These are yes or no findings as the source states them, for the method shown. For part of these data: In cells and extracts the contact can be indirect. Some entries that bind do so weakly or less than the wild type. Tags and fused reporters may be left off the sequences shown.
T1: GST-WSB1 (full-length) (human) (UniProt Q9Y6I7)
T1 sequence: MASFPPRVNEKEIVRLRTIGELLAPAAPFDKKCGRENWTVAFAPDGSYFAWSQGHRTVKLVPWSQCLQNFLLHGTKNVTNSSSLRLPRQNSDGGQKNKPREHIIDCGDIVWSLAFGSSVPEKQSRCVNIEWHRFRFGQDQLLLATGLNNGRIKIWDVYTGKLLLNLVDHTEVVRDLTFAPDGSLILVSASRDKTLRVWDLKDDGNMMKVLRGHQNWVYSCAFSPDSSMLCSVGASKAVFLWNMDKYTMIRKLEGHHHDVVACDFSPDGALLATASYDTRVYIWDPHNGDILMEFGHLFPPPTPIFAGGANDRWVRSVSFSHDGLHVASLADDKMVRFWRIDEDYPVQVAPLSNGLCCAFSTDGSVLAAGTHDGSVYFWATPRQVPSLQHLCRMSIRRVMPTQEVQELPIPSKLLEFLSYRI

Sequences of proteins named here, by UniProt entry; tags and fusion partners are left off. A change or cut given only in a name is not applied to a line headed by its entry. A line that says so, or that is headed by a name, gives the form on record, which may keep a tag or linker.
UniProt Q04206: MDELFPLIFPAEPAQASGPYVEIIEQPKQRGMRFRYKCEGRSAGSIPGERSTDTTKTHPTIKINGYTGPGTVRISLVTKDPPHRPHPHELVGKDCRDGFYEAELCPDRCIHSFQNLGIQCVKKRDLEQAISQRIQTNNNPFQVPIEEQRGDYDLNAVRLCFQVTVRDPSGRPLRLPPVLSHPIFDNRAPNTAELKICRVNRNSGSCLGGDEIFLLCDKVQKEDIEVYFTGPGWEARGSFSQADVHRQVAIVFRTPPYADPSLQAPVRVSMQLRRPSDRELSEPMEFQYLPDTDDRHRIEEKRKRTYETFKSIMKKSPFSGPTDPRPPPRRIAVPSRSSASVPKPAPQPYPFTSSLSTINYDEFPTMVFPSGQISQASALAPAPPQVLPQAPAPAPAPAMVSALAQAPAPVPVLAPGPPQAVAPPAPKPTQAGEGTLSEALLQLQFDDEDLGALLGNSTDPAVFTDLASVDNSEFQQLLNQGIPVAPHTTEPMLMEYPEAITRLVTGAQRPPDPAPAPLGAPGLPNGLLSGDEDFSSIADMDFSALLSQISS
T7-RelA-K314/315R (Q04206, form named): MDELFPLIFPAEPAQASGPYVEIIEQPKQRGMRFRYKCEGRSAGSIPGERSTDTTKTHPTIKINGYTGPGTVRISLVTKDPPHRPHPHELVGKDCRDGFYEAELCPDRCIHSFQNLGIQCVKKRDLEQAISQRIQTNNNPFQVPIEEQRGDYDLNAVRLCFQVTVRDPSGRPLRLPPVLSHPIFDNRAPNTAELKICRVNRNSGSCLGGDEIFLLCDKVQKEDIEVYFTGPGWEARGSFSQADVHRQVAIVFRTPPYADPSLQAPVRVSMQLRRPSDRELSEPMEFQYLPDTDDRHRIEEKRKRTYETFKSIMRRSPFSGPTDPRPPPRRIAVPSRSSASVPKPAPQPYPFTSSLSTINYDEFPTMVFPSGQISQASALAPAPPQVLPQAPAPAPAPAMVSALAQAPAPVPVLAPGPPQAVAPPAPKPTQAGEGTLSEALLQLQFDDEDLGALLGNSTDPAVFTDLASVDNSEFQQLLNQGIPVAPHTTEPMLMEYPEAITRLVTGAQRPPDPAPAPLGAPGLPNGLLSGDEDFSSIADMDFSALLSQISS

T2: GST-WSB2 (full-length) (human) (UniProt Q9NYS7)
T2 sequence: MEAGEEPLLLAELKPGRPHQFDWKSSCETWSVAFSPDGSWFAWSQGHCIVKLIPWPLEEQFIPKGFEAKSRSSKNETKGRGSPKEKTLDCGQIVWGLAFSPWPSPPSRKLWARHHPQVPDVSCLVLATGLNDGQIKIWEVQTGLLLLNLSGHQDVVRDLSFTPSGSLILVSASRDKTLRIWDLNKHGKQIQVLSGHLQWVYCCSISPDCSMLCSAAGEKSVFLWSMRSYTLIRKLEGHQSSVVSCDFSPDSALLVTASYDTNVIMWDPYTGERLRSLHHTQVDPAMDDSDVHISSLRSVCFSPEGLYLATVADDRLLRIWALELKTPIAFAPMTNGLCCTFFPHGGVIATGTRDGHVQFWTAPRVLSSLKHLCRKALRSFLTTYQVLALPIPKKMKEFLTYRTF

T3: GST-WSB2-E28A (human) (UniProt Q9NYS7)
T3 sequence: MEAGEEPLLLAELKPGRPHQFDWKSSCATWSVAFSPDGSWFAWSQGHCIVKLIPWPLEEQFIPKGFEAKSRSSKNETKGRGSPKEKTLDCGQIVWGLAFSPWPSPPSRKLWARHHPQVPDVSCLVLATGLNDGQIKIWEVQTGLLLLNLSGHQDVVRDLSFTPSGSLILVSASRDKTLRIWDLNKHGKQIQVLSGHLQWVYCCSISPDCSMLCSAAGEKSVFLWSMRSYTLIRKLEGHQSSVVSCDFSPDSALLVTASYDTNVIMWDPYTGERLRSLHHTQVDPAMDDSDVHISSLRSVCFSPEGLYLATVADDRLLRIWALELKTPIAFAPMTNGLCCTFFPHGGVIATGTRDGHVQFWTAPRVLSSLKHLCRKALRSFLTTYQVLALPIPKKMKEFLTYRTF


Tests used:
[1] = biological target: T1, GST-WSB1 (full-length) (human); experiment: pull-down; as a1, with 100-fold molar excess of RelA peptide added before pull-down (peptide competition); the pair that is blocked; only the target purified
[2] = biological target: T2, GST-WSB2 (full-length) (human); experiment: as above
[3] = biological target: T1, GST-WSB1 (full-length) (human); experiment: pull-down; 1 ug beads-bound GST fusion protein and 50 ul HEK293T whole cell lysate in 500 ul lysis buffer, rotation at 4°C for 1 h; immunoblot with anti-T7; only the target purified
[4] = biological target: T2, GST-WSB2 (full-length) (human); experiment: as above
[5] = biological target: T3, GST-WSB2-E28A (human); experiment: as above
[6] = biological target: T1, GST-WSB1 (full-length) (human); experiment: pull-down; peptide competition: 100-fold molar excess of synthetic RelA peptide against T7-RelA of the lysate for beads-bound GST-WSB1 or GST-WSB2; peptide and GST fusion; both purified
[7] = biological target: T2, GST-WSB2 (full-length) (human); experiment: as above

Molecule	binding [1]	binding [2]	binding [3]	binding [4]	binding [5]	binding [6]	binding [7]
T7-tagged WT RelA, K314/315-methylated by co-transfected Flag-Set9 (from UniProt Q04206 1-551)	binds	binds	binds	binds	binds	–	–
T7-RelA-K314/315R (from UniProt Q04206 1-551)	–	–	no binding	no binding	–	–	–
KSIMKKSPFS (monomethyl-lysine at K314 and K315 (K[me1]K[me1])) [K314/315 monomethylated RelA peptide KSIMK[me1]K[me1]SPFS (competition assay)]	–	–	–	–	–	binds	binds

From publication PMC11109945
